According to the supplement of paper PMC10338343:
± gives the standard deviation. The list shows a part of the results, in another mix than the full data.

Tested on: MIWI (PIWIL1) piRISC loaded with L1MC piRNA (30 nt)
Experiment: pre-steady-state target cleavage rate (min^-1); MIWI and MILI are mouse PIWI proteins and EfPiwi is from a freshwater sponge; tags in brackets are library labels; higher = faster piRNA-guided slicing of the target
Settings: guide: L1MC piRNA 5'p-UAACUAAAUACUAUGCAAGCUGUAGGUCCU
Method in brief: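 Three pooled Cleave-'n-Seq trials supplied the data, with k3 capped at 0.0001 min^-1. In each, […] transcribed, DNA-blocked target RNA library and 1 nM active affinity-purified piRISC with one synthetic guide reacted in HEPES–potassium acetate buffer at 33 °C for 0–8 or 0–960 min, with or without 500 nM GTSF1 partner protein. Uncleaved targets were sequenced and normalised to depth and to weakly complementary targets. A burst-and-steady-state fit provided the pre-steady-state cleavage rate.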

[1] = auxiliary factor: 500 nM mouse GTSF1
[2] = auxiliary factor: none (no GTSF1)
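Further: 1 nM active piRISC with 0.1 nM target library at 33 °C single turnover.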

Sequence | pre-steady-state target cleavage rate [1] | pre-steady-state target cleavage rate [2]
UCCUCCUACAGCUUGCAUUCUAUUUACAAA | 0.0407 ± 0.014 | 
UCGACCUAGUCCUUGCAUAGUAUUUUCAAA | 0.146 ± 0.03 | 
UCCUGCUACAGCUUGCAUACAUUUUAGUUA | 0.0106 ± 0.0058 | 
UGGACCCUACAGCUUGCAUAGUAUUUAGUUA |  | 0.0808 ± 0.015
UCCUGGAUGUCGAACCAAAGUAUAUAGUUA |  | < 0.0001
UCCUGGAUGUCCUUGCAGAGUAUUUAGUUA |  | 0.00314 ± 0.002
UCCUGCUACAGCUUGCAUCAGUAUUUAGUUA | 0.0153 ± 0.0073 | 
UCCUGGUAGAGCUUCCAUAGUAUUUAGUUA | 0.0436 ± 0.015 | 
AGGACCUACAGCUUGCAUAGAUUUUUCAAA | 0.605 ± 0.2 | 
UCCUGGAUGUCGAACCAUAGUAUUUAGGUA | < 0.0001 | 
UCCUGGAACAGGUUGCAUAGUAUUUACAAA | 0.15 ± 0.022 | 
UCCUGCUACAGCUUGCAUAGUUAAUAGAAA | 0.078 ± 0.022 | 
UCCUGGUACACGUUGCAUAGUAUUUUCAAA | 0.0245 ± 0.013 | 
UCCUCCUACAGCUUGCAUAGUAUUUGUUA | 0.351 ± 0.036 | 
UCCUGGAACUCGUUGCAUAGUAUUUAGAAA | 0.0103 ± 0.0043 | 
UCCUGGAUGUCGAACGAUAGUAAUUACUUA |  | < 0.0001
UCCUGGUACAGCUUGCAUAGUAUAAACAAA | 0.0984 ± 0.028 | 
UCCACCUACAGCUUGCAUAGUUAAUACAAA | 0.0374 ± 0.014 | 
UCCUGGAUGAGCUUGCAAGUAUUUAGUUA | 0.00592 ± 0.0034 | 
UCCUGGAUCAGCUUCCAUUGUAUUUAGUUA | 0.0154 ± 0.0063 | 
UCCUGGAUGUGCAUGGAUAGUAUUUAGUUA | 0.0483 ± 0.008 | 
UCCUGGAUGACCAUGCAUAGUAUUUAGUUA | 0.00692 ± 0.0045 | 

Sequence | pre-steady-state target cleavage rate [1] | pre-steady-state target cleavage rate [2]
UCCUGGUACAGCUUGCAUAGUAAUUUCAAA | 0.0503 ± 0.021 | 
UCCUGGAUGUGCUAGCAUACUAUUUAGUUA | 0.00834 ± 0.004 | 
UCCUGGAUGUCGAACGUAAGUAUUUAGAUA |  | < 0.0001
UCCUGGAUCAGCUUCCAUAGUAUUUAGUUA | 0.0302 ± 0.0062 | 
UCCUGGAUGAGCUUGCAUAGAAAUUAGUUA | 0.0143 ± 0.0049 | 
UCGACCUACAGCUUCGAUAGUAUUUAGAAA | 0.0817 ± 0.02 | 
UCCUCCUACAGCUUGCAUAGAUUUUAGAAA | 0.0307 ± 0.011 | 
UCCUGGAUGUGCUUGCAUACUAUUUAGAAA | 0.0056 ± 0.0041 | 
UCGACCUACAGCUUCCAUAGUAUUAAGUUA | 0.0786 ± 0.026 | 
UCCUGGAUGUGCAAGCAUAGUAUUUAGUAA | 0.00425 ± 0.0035 | 
UCCUGGUACAGCUUCCAUUGUAUUUAGUUA | 0.124 ± 0.036 | 
UCCUGGAUGUCCUUGCAUAGUAUUAUAGUUA | 0.0236 ± 0.0064 | 
UCCUGGAUGUCCUUGCAUAGUUAAUAGUUA | 0.00429 ± 0.004 | 
UCGACCUACAGCUUGCAUAUUAUUUAGUUA |  | 0.0515 ± 0.013
AGGACCUACACGAUGCAUAGUAUUUAGAAA | 0.261 ± 0.027 | 
UCCUGGAUGUCCUUGCAUAGUAUUUCAGUUA | 0.0207 ± 0.0071 | 
UCGACCUACUCCUUGCAUAGUAUUUUCAAA | 0.253 ± 0.033 | 
UCCUGCUACAGCUUGCAUAGUAUUAUCAAA [g7:g25:cont:t1A] | 0.292 ± 0.047 | 
UCCUGGAUGUCGAACGUAAGUUAUUAGUUA |  | < 0.0001
UCCUGGAUGUCCUUGCUUAGUAUUUACUUA | 0.0076 ± 0.004 | 
UCGACCUACAGCUUCGAUAGUAUUUUCAAA | 0.01 ± 0.0053 | 
UCCUGGAUGUCGAAGGAAAGUAUUUAGUUA | < 0.0001 | 

Sequence | pre-steady-state target cleavage rate [1] | pre-steady-state target cleavage rate [2]
UCCUGGAACAGCUUGCAUCAGUAUUUAGUUA | 0.00906 ± 0.005 | 
UCCUGGAUGUCGAACGAUAGUAUUUAUUUA |  | < 0.0001
UCGACCUACAGCUUGCAUUAGUAUUUAGUUA | 0.264 ± 0.082 | 
UCCUGGUACAGCUUGCAUAGUAAAUACAAA | 0.0664 ± 0.023 | 
UCCACCUACAGCUUGCAAUGUAUUUAGAAA | 0.106 ± 0.02 | 
UCCACCUACAGCUUGCAUAGUAUAAUCAAA | 0.327 ± 0.056 | 
UCCUGCUACAGCAAGCAUAGUAUUUUCAAA | 0.182 ± 0.046 | 
UCCUCCUACAGCUUCCAUAGAAUUUAGUUA | 0.023 ± 0.011 | 
UCCUGGAUGAGCUUGACAUAGUAUUUAGUUA | 0.201 ± 0.019 | 
UCCAGCUACAGCUUGCAUAGUAUUUUCAAA | 0.396 ± 0.052 | 
UCCUGGAACAGCUUGCAUAGAUUUUAGUAA | 0.0419 ± 0.015 | 
UGGACCUACAGCUUGCAUAGUUUUAGUUA | 0.00797 ± 0.0033 | 
UCCACCUACAGCUUGCACUAGUAUUUAGUUA | 0.132 ± 0.048 | 
UCCUGGAACAGGAUGCAUAGUAUUUACAAA | 0.0171 ± 0.0066 | 
UGGUGCUACAGCUUGCAUAGUAUUUUCAAA | 0.191 ± 0.032 | 
UCCACCUACAGCUUGCGAUAGUAUUUAGUUA | 0.0565 ± 0.018 | 
UCCUGGAUGUCCAUUGCAUAGUAUUUAGUUA | 0.0301 ± 0.009 | 
UCCUGCUACAGCUAGCAUAGUAUUUAGAUA | 0.357 ± 0.043 | 
UCCUGGAUGUCGAACGUAUCUAUUUGGUUA |  | < 0.0001
UCCUGGUACAGCUUGCAUAGUCAUUUAGUUA | 0.0123 ± 0.0065 | 
UCCUGGUACAGCUUGCAAUCUAUUUAGAAA | 0.00478 ± 0.0045 | 
UCCUGGAUGUCGAACGAUAGUAUUUUGUUA |  | < 0.0001
